Reference: the supplement of paper PMC11417369
± gives the standard deviation of the averaged measurements. Some of the results follow.

The sequences below were run on PfAP2-EXP AP2 domain (GST-tagged) (assay: gcPBM binding intensity (ln(normalized median fluorescence intensity)); higher = stronger DNA binding).
How it was run: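 Binding intensity is defined as the maximum Masliner-normalised natural-log median intensity across replicate spots for either probe orientation. It was measured on an Agilent 4 × 180k array of primer-extended double-stranded 36-bp intergenic genomic probes and negative controls, to which GST-tagged P. falciparum DNA-binding domains made in E. coli were applied for 1 h in 1× PBS with 1% milk, 0.2 mg/ml BSA, 0.5% salmon testes DNA and 0.03% Triton X-100. Detection was by Alexa488 anti-GST antibody and scanning at 488 nm.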

“TGTATAAAAAGAAAAAATCGTATGTGTTATCAAAAA [GTGCAC_negctrl_site490]” and “ACGATTCAAAGGGAATATAAAATATTATTATCTATA [CACACA_negctrl_site1739]” are within error of each other in “gcPBM binding intensity (ln)” value: 8.47 ± 0.4 for the first, 8.14 ± 0.44 for the second.

“AACCAATATGCGTATACACACATAAATATAAATATA [CACACA_site3780]” and “AATAGAATAATCCTTACACACACACCCACACGAATA [CACACA_site8053]” are within error of each other in “gcPBM binding intensity (ln)” value: 8.35 ± 0.22 for the first, 8.88 ± 0.54 for the second.

Going from “ATATATTTTTTTTATACATGCAATGCATTTACGTTG [TGCATGCA_site565]” to “TTTTTTTTTTTTTGAACACACATTATTAATTTTTAT [CACACA_site308]”, the “gcPBM binding intensity (ln)” value falls from 8.88 ± 0.028 to 8.26 ± 0.54.

Compared with “TTTTTTATATATTAGGAATTTATAAAATTAGAAGGT [GTGCAC_negctrl_site617]”, “GTATTAATTTTAAGGTGTACGCAAAAAATTTAATTT [XGTACX_site718]” is lower in “gcPBM binding intensity (ln)” value: 9.43 ± 0.67 for the first, 8.53 ± 0.23 for the second.

“AACCAGTTGATGTGTACACATATAGTAATAATTTTA [CACACA_site5564]” and “TTTCTATTACGAACGTGTACATACATTATTCTTAAA [XGTACX_site5816]” are within error of each other in “gcPBM binding intensity (ln)” value: 8.78 ± 0.4 for the first, 8.88 ± 0.26 for the second.

Compared with “TAGAAAAAAATAGATGCATGCAATGAATGAATAATA [TGCATGCA_site14]”, TTTTTGTTAATAAGTATGCACTATCTCATTTTTGTA is lower in “gcPBM binding intensity (ln)” value: 10.3 ± 0.17 for the first, 8.64 ± 0.29 for the second.

“ATATATTTTGGGGACTTTTTAAAAAAGAAGTATTAA [TGCATGCA_negctrl_site337]” and “GAGCATTACACATATACACACATATAAATAAACATA [CACACA_site7315]” are within error of each other in “gcPBM binding intensity (ln)” value: 8.61 ± 0.42 for the first, 8.57 ± 0.43 for the second.

“CTATACTATGAAAAGTGTACGAATAGCTAGCTATTT [XGTACX_site5927]” and “TAGTAGTATTCATCCAGTACATATAAATGTATAATA [XGTACX_site7552]” are within error of each other in “gcPBM binding intensity (ln)” value: 8.49 ± 0.4 for the first, 8.41 ± 0.37 for the second.

“GAGAAATTTATACATACACACATATAAATATTATAG [CACACA_site7819]” and “CTTTGCATTACGAACATACACACAGAATAACTGAAA [CACACA_site3024]” are within error of each other in “gcPBM binding intensity (ln)” value: 8.36 ± 0.25 for the first, 8.62 ± 0.54 for the second.

Compared with “TTTTAATGAAATATCAAAAAAATTTATGATTTCAAA [GTGCAC_negctrl_site662]”, “AATAATATATAAGAAAGTACAAAAAAATAAAATAAA [XGTACX_site3302]” is higher in “gcPBM binding intensity (ln)” value: 7.61 ± 0.35 for the first, 8.85 ± 0.38 for the second.

“AAAAAGAAAAAACTTACACACATATATACACCCATG [CACACA_site8079]” and “ATATCAAATAGACAAACACACAAAGGAAGAGTGAAA [CACACA_site3921]” are within error of each other in “gcPBM binding intensity (ln)” value: 8.68 ± 0.49 for the first, 8.96 ± 0.52 for the second.

“TTCTTTTTTTTTTTTTTTTTTTTATAGTACAAAAAA [TGCATGCA_negctrl_site450]” and “ATCTATATTATTTCTACACACATATCTATAATATGT [CACACA_site7561]” are within error of each other in “gcPBM binding intensity (ln)” value: 8.34 ± 0.3 for the first, 8.79 ± 0.5 for the second.

“TTTTTTTTTTTGTGTGCATGTGCTAGGAAAGGTAGG [TGCATGCA_site330]” and “TTGTTCATCTTTTTTTTTTTTTTTTTTTTTTAAATC [CACACA_negctrl_site191]” are within error of each other in “gcPBM binding intensity (ln)” value: 8.85 ± 0.23 for the first, 8.18 ± 0.62 for the second.

“ATTAATAAAAGATAAAGTACAAATCGGAAAATGAAT [XGTACX_site7846]” and “TTTCAATGTGACACGTGTCCGTAAAATTACATAATT [XGTACX_site7073]” are within error of each other in “gcPBM binding intensity (ln)” value: 8.88 ± 0.51 for the first, 8.72 ± 0.42 for the second.

“AAGATTAAACATTGCACACAGAAATATATTTTCTAT [CACACA_site2374]” and “TGTTATTATTAAGACACACACACAAAAAAAAAAAAA [CACACA_site1481]” are the same in “gcPBM binding intensity (ln)” value: 8.49 ± 0.36 for the first, 8.49 ± 0.58 for the second.

“TGAACTCATAGGAAAACACACATATGTGCAATATAT [CACACA_site6231]” and “ACAATGATAGTGTAAAGTACATATATATAAAAAAAT [XGTACX_site5928]” are within error of each other in “gcPBM binding intensity (ln)” value: 9.14 ± 0.44 for the first, 8.98 ± 0.51 for the second.

“TTTATAATATGTTATACATGCAGGTACCTTTTTGTA [TGCATGCA_site746]” and “ATTTATAATTTTTGAGCACACACAAGCATATATATA [CACACA_site8531]” are within error of each other in “gcPBM binding intensity (ln)” value: 8.93 ± 0.4 for the first, 8.66 ± 0.32 for the second.

Going from “TCCTTATTTTGCAGGAGTACCATTTTTTAAAAATAC [XGTACX_site5968]” to “AATAACAATTATAAAAGTACAGATTTTTATTTCTAA [XGTACX_site5746]”, the “gcPBM binding intensity (ln)” value falls from 8.81 ± 0.21 to 8.08 ± 0.28.

“ACAATTACTTATTTTAATTTTTTTAATCTATTGATT [CACACA_negctrl_site967]” and “TTTTTTTTGTTATGAACATGCAAATTAAAATATAAT [TGCATGCA_site954]” are within error of each other in “gcPBM binding intensity (ln)” value: 8.18 ± 0.39 for the first, 8.46 ± 0.39 for the second.

“TAAATACATAAAAATTGTACACATTGTTTTCTCTTT [XGTACX_site6435]” and “CAACAATTTCGTCATACACACATTCAGAATATATAT [CACACA_site2370]” are within error of each other in “gcPBM binding intensity (ln)” value: 8.35 ± 0.42 for the first, 8.6 ± 0.51 for the second.

“TACTTTTCTTAAAGATGTACGTTTTAAAAATAAAAT [XGTACX_site14]” and “AAGGAAATAATTAAATGTACAAAAAAAAAAAAAATT [XGTACX_site562]” are within error of each other in “gcPBM binding intensity (ln)” value: 8.31 ± 0.22 for the first, 8.46 ± 0.4 for the second.

“TACAAACAAACACATAGCAATATATGTTATCAAAAA [XGTACX_negctrl_site1]” and “TTTTATGCTCAATTATTAAGAAATACTTTTTCTTCC [XGTACX_negctrl_site208]” are within error of each other in “gcPBM binding intensity (ln)” value: 8.53 ± 0.4 for the first, 8.38 ± 0.41 for the second.
